Results on 4 molecules are retold here after publication PMC5312353.

By UniProt entry, the sequences of proteins in these tests, tags left out. Where a name states a change or a piece, a line headed by the entry shows the natural chain unless it says otherwise. Chains listed by the source or under a name are the forms on record and can include a tag or linker. Residues count along the entry.
UniProt P28698: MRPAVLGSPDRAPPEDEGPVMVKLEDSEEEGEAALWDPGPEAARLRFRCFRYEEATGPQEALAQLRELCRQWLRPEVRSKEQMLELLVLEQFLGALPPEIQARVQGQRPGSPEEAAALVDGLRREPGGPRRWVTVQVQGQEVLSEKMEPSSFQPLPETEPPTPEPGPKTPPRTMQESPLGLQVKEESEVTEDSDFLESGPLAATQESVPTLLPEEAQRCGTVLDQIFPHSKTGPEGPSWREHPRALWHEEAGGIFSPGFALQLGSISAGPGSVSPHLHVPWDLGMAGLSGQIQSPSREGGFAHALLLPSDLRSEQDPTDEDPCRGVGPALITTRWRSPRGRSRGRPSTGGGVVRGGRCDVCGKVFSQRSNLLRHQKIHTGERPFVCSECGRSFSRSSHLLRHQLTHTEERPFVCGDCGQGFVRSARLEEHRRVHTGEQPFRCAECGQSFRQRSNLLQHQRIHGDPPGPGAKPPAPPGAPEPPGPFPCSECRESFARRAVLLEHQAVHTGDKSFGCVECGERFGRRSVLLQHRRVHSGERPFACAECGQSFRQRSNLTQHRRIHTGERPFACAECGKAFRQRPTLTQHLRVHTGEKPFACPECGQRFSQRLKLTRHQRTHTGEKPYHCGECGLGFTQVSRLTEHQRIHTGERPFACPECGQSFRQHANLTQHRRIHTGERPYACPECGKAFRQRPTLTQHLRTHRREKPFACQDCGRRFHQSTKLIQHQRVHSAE
MZF-1_(73–485)-c-Myc fragment: residues 322-734 of P28698
MZF-1-c-Myc (full-length MZF-1) (P28698-2, form named): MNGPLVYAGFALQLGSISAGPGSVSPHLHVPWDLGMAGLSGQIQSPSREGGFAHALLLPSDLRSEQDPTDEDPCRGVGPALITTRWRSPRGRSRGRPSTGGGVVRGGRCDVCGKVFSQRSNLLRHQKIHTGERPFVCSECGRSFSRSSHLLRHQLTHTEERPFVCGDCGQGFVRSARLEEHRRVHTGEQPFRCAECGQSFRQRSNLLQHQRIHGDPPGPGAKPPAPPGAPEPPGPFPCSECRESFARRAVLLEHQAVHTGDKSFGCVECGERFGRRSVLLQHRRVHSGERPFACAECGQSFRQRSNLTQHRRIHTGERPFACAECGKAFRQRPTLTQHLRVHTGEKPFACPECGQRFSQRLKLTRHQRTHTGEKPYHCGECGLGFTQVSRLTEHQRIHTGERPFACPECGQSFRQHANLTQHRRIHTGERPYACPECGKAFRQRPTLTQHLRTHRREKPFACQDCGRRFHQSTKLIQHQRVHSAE
MZF-1_(1–141)-c-Myc fragment (P28698-2, form named): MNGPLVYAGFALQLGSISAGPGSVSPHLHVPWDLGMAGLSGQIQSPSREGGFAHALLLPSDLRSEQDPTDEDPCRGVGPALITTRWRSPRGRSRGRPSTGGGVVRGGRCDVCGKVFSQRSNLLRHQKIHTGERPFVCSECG
MZF-1_(1–60)-c-Myc fragment (P28698-2, form named): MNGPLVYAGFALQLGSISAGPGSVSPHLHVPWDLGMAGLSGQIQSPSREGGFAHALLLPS
MZF-1_(1–72)-c-Myc fragment (P28698-2, form named): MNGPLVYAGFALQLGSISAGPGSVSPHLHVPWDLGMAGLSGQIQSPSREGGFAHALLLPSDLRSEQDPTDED

Assay [1] addresses T1, Elk-1-c-Myc fragment, amino acids 145–428 (human) (UniProt P19419).
T1 sequence: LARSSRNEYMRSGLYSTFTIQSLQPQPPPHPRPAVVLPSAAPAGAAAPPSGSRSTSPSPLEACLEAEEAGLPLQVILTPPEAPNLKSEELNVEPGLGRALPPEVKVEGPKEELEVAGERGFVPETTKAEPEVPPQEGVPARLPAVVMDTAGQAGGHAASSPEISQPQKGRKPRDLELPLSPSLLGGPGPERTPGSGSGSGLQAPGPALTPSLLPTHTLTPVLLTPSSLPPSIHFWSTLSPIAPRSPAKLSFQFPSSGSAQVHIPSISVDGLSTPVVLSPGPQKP
As to the kind of experiment: co-IP; HEK-293 cells co-transfected with 5 μg of the FLAG-tagged full-length partner and a c-Myc-tagged protein or fragment; IP with c-Myc monoclonal antibody, IB with anti-FLAG.

Assay [2] deals with T2, Elk-1-c-Myc fragment, amino acids 87–428 (human) (UniProt P19419).
T2 sequence: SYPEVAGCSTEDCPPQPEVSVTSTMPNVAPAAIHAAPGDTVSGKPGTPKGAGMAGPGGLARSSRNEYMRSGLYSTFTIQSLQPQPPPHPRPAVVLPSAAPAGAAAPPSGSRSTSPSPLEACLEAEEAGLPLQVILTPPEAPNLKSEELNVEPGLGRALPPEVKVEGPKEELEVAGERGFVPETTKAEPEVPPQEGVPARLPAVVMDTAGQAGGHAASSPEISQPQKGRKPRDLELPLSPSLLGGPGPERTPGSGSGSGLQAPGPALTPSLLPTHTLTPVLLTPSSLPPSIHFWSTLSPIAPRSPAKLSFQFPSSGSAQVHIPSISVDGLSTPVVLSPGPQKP
The assay is described as above.

Assay [3] addresses T3, Elk-1_(145–157)-c-Myc fragment (heparin-binding domain) (human).
T3 sequence: LARSSRNEYMRSG
The assay is described as above.

In assay [4] the target is T4, mutant Elk-1-c-Myc fragment, amino acids 145–428 (R147, R150, R155 to alanine) (human) (UniProt P19419).
T4 sequence: T1 sequence with R3A, R6A, R11A
Described as above.

The target of assay [5] is T5, Elk-1-c-Myc (amino acids 1–428) (human) (UniProt P19419).
T5 sequence: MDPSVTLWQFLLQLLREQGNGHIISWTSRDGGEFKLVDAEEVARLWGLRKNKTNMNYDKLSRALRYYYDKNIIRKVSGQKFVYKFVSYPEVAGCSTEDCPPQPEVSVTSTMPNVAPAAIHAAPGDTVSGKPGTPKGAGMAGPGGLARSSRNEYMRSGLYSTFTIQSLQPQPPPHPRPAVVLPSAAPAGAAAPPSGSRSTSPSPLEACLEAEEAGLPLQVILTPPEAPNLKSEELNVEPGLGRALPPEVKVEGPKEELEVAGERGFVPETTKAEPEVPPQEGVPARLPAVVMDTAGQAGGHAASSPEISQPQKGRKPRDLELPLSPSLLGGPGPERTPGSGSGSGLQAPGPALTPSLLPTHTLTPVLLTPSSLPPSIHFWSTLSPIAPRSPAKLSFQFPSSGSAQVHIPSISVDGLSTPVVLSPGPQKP
The description is as above.

For assay [6], the target named is T6, Elk-1-c-Myc fragment, amino acids 87–325 (human) (UniProt P19419).
T6 sequence: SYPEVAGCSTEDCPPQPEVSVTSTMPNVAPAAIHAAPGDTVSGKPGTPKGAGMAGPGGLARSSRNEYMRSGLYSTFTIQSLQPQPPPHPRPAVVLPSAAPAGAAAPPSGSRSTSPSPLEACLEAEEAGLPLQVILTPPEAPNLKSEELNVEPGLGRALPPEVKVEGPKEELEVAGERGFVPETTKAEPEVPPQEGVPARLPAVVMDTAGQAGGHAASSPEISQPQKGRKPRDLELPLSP
Described as above.

Assay [7] addresses T7, mutant Elk-1_(145–157)-c-Myc fragment (R147, R150, R155 to alanine) (human) (UniProt P19419).
T7 sequence: LAASSANEYMASG
The description is as above.

The target in assay [8] is T8, Ets-like protein-1 (Elk-1), endogenous in MB-231 cells (human (endogenous in MB-231)) (UniProt P19419).
T8 sequence: T5 sequence
As to the kind of experiment: Re-ChIP (sequential chromatin immunoprecipitation); MB-231 chromatin pulled down with anti-Elk-1 and then anti-MZF-1 antibodies, and in the reverse order; PCR of the PKCα promoter.

Assay [9] addresses T8, Ets-like protein-1 (Elk-1), endogenous in MB-231 cells (human (endogenous in MB-231)). As to the kind of experiment: co-IP; endogenous proteins of MB-231 cells; extracts IP with anti-MZF-1 or anti-Elk-1 antibody or control rabbit IgG, IB with both antibodies sequentially.
The target in assay [10] is myeloid zinc finger 1 (MZF-1), endogenous in MB-231 cells (human (endogenous in MB-231)) (UniProt P28698). The description is as above.
Assay [11] concerns the target FLAG-MZF-1ΔDBD (deletion mutant lacking the C-terminal region) (human) (UniProt P28698). As to the kind of experiment: co-IP; MB-231 cells transfected with 5 μg FLAG-MZF-1ΔDBD or Elk-1-c-MycΔDBD; IP with FLAG or c-Myc antibody, endogenous partner detected by IB.
The target in assay [12] is MZF-1_(1–60)-c-Myc fragment (human) (UniProt P28698). As to the kind of experiment: co-IP; HEK-293 cells co-transfected with 5 μg of the FLAG-tagged full-length partner and a c-Myc-tagged protein or fragment; IP with c-Myc monoclonal antibody, IB with anti-FLAG.
Assay [13] addresses MZF-1_(73–485)-c-Myc fragment (human) (UniProt P28698). Described as above.
The target of assay [14] is MZF-1-c-Myc (full-length MZF-1) (human) (UniProt P28698). The description is as above.
Assay [15] addresses MZF-1_(1–72)-c-Myc fragment (human) (UniProt P28698). The description is as above.
Assay [16] addresses MZF-1_(1–141)-c-Myc fragment (human) (UniProt P28698). The assay is described as above.
The target of assay [17] is T9, MZF-1_(60–72)-c-Myc fragment (acidic domain) (human) (UniProt P28698).
T9 sequence: SDLRSEQDPTDED
The description is as above.

Changes are numbered by the printed parent chain. No constants are given. Whether binding was seen depends on the method and setting. For some assays here: Binding seen in cells or lysates may run through a third protein. Some entries that bind do so weakly or less than the wild type. For some assays here: Tags and fused reporters may be left off the sequences shown.

For “FLAG-MZF-1 (full length, amino acids 1-485) (from UniProt P28698-2 1-485)”, the binding result is on record as “binds” in assay [1]; “binds” in assay [2]; “binds” in [3]; “no binding” in [4]; “binds” in [5]; “binds” in assay [6]. The binding entry in assay [7] was “no binding”.
As to “myeloid zinc finger 1 (MZF-1), endogenous in MB-231 cells (from UniProt P28698 1-734)”, the binding result in assay [8] and in [9] was “binds” in each case.

B1: Ets-like protein-1 (Elk-1), endogenous in MB-231 cells (protein, UniProt P19419 1-428)
chain: T5 sequence
In the case of B1, the binding entry in assay [10] and in [11] was “binds” in each case.

B2: FLAG-Elk-1 (full length, amino acids 1-428) (protein, UniProt P19419 1-428)
chain: T5 sequence
Turning to B2, the binding entry in [12] was “no binding”; in [13], “no binding”; in assay [14], “binds”; in [15] it was “binds”; in assay [16] it was “binds”; in [17], “binds”.
